According to the supplement of paper PMC7826260:
The list shows a part of the results. The data describe in vitro nicking of single-stranded DNA by Rep domains at 3 µM enzyme and 37 °C for 1 h; the strands have 90 letters, of which the middle is given. Values are log2 of uncut reads against the no-enzyme pool; more negative means more cut, near 0 not cut, and no call is made. Counts are relative to all reads; uncut strands gain when others are lost, and binding without cutting may add a little.

Assays:
Test in all cases: uncleaved DNA left, log2 of reads against the no-enzyme library (log2 ratio); higher = less cleavage (more negative = more Rep cleavage of the k-mer); sequences stand for … in CTCGTCCG…ACCGGAGA
[1] = system: T1, Rep nickase domain of Muscovy duck circovirus
T1 sequence (protein, residues 1-111, tag omitted): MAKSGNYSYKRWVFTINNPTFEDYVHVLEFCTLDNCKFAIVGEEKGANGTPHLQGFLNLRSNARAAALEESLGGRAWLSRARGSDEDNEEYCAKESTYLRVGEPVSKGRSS
Procedure: (§1)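 A pool of 90-nt single-stranded DNAs with seven random bases just before the constant AC of the nick site (name = the seven bases) was cut by 3 µM recombinant His6-SUMO-tagged Rep nickase domain (300 nM DNA, 50 mM HEPES pH 8.0, 50 mM NaCl, 1 mM MnCl2, 1 h, 37 °C, three replicates). Uncut DNA was amplified and sequenced.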

[2] = system: T2, Rep nickase domain of banana bunchy top virus
T2 sequence (protein, residues 1-94, tag omitted): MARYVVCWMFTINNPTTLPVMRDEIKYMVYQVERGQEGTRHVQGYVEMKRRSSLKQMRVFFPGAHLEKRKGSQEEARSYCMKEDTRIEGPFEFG
Procedure: as §1

[3] = system: T3, Rep nickase domain of cabbage leaf curl virus
T3 sequence (protein, residues 1-116, tag omitted): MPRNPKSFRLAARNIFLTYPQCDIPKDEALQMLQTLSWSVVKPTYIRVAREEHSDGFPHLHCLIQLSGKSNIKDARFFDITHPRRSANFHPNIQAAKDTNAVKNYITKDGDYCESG
Procedure: as §1

[4] = system: T4, Rep nickase domain of chickpea chlorotic dwarf virus
T4 sequence (protein, residues 1-124, tag omitted): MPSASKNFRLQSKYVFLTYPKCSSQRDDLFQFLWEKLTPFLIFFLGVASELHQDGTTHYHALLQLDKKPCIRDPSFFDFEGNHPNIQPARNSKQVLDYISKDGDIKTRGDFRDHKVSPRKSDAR
Procedure: as §1

[5] = system: T5, Rep nickase domain of faba bean necrotic yellows virus
T5 sequence (protein, residues 1-98, tag omitted): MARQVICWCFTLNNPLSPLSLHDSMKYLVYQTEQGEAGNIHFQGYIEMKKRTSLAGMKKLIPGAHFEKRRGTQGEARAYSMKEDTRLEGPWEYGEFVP
Procedure: as §1

[6] = system: T6, Rep nickase domain of maize striate mosaic virus
T6 sequence (protein, residues 1-117, tag omitted): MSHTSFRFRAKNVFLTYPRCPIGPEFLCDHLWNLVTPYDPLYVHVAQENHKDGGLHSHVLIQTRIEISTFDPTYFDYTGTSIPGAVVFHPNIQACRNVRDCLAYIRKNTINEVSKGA
Procedure: as §1

[7] = system: T7, Rep nickase domain of porcine circovirus 2
T7 sequence (protein, residues 2-116, tag omitted): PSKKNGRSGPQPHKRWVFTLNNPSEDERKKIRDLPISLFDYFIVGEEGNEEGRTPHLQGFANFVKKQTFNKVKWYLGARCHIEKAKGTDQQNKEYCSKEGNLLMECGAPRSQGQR
Procedure: as §1

[8] = system: T8, Rep nickase domain of tomato golden mosaic virus
T8 sequence (protein, residues 1-124, tag omitted): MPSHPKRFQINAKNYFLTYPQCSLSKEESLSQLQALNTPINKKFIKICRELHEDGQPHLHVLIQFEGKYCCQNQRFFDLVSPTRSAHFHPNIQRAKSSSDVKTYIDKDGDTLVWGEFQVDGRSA
Procedure: as §1

[9] = system: T9, Rep nickase domain of tomato yellow leaf curl virus
T9 sequence (protein, residues 1-136, tag omitted): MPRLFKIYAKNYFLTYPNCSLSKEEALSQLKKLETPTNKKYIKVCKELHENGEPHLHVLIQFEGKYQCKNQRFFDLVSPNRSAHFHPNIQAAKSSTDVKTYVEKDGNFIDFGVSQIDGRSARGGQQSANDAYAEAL
Procedure: as §1

[10] = system: T10, Rep nickase domain of wheat dwarf virus
T10 sequence (protein, residues 1-137, tag omitted): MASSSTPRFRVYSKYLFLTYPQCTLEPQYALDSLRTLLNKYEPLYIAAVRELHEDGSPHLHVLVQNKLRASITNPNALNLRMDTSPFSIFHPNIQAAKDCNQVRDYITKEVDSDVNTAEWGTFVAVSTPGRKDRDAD
Procedure: as §1

Row | Sequence | uncleaved DNA left (log2) [1] | uncleaved DNA left (log2) [2] | uncleaved DNA left (log2) [3] | uncleaved DNA left (log2) [4] | uncleaved DNA left (log2) [5] | uncleaved DNA left (log2) [6] | uncleaved DNA left (log2) [7] | uncleaved DNA left (log2) [8] | uncleaved DNA left (log2) [9] | uncleaved DNA left (log2) [10]
1 | TACGAAG | 0.0952 | 0.0757 | -0.665 | -0.686 | 0.0102 | -0.905 | 0.26 | 0.0101 | 0.0286 | -0.161
2 | CCTTCAA | -0.00349 | 0.0338 | -0.0455 | -0.413 | 0.00791 | -0.764 | -0.159 | -0.0806 | 0.0676 | 0.031
3 | CGTTCCT | -0.393 | -0.0466 | -0.0262 | -1.36 | -0.103 | 0.0145 | -0.779 | -0.151 | 0.00333 | 0.046
4 | CCATCCT | -1.28 | -0.166 | -0.301 | -2.64 | -0.115 | -0.984 | -0.961 | -0.0962 | -0.107 | -0.134
5 | CTCGGGC | 0.0738 | 0.0923 | 0.193 | 0.355 | -0.0224 | 0.0941 | 0.177 | 0.0543 | 0.0307 | 0.0375
6 | TGCCCAA | -0.0176 | 0.0351 | 0.177 | 0.4 | -0.0902 | -0.169 | -0.0543 | -0.062 | 0.0928 | 0.072
7 | GTCCCCG | -0.0722 | 0.077 | 0.263 | 1.14 | -0.0396 | 1.33 | -0.0332 | 0.111 | -0.0402 | -0.0374
8 | AACCAGT | 0.052 | -0.086 | -0.403 | -1.59 | -0.0282 | -1.05 | -1.03 | -0.0349 | 0.0141 | -0.0154
9 | AATCTTC | 0.0981 | 0.0235 | -0.0471 | -0.444 | 0.097 | -0.358 | -0.186 | -0.0564 | 0.0281 | 0.143
10 | CTCGTCG | -0.0743 | -0.13 | -0.935 | -0.586 | -0.00208 | -0.982 | 0.00811 | -0.111 | -0.132 | -0.0714
11 | GGAACGA | 0.0334 | 0.202 | 0.866 | 1.95 | -0.0312 | 2.11 | 0.309 | 0.0528 | 0.0705 | 0.192
12 | GAACAGT | 0.0701 | 0.151 | 0.768 | 1.27 | 0.0188 | 1.79 | 0.288 | 0.0597 | 0.0607 | 0.21
13 | GTCACCA | -0.0318 | 0.132 | 0.335 | 0.838 | 0.0586 | 1.68 | 0.0768 | 0.0291 | 0.103 | 0.136
14 | AGCTCGT | 0.0805 | 0.0173 | -0.0799 | 0.0419 | -0.0503 | -0.335 | -0.336 | 0.0142 | 0.0221 | 0.0982
15 | GAAATGT | 0.0708 | -0.0225 | -0.195 | -0.826 | 0.0535 | 0.342 | -0.225 | -0.00945 | -0.0305 | -0.0825
16 | TTCTTGT | -0.498 | -0.276 | -0.24 | -0.843 | -0.171 | -1.1 | -1.02 | -0.322 | -0.168 | -0.21
17 | TGCTCAA | 0.106 | 0.181 | 0.16 | 0.196 | 0.0928 | -0.208 | 0.0552 | 0.103 | 0.205 | 0.224
18 | ATTCGTG | 0.112 | 0.0485 | -0.821 | -0.684 | 0.0155 | -1.06 | 0.0136 | -0.0354 | 0.00922 | -0.0687
19 | CCGTTAG | -0.074 | -0.281 | -0.863 | -0.485 | -0.0827 | -1.11 | -0.111 | -0.209 | -0.143 | -0.3
20 | TCAACGC | 0.0841 | 0.0316 | -0.0708 | -0.77 | 0.0876 | -0.759 | 0.145 | 0.116 | -0.0848 | -0.0611
21 | CCGTCAC | -0.104 | -0.0265 | -0.00141 | -0.146 | -0.0633 | -0.504 | 0.0187 | -0.219 | 0.0447 | -0.00597
22 | TAGACCA | 4.78e-05 | 0.167 | 0.137 | -1.27 | 0.00732 | 0.505 | -0.871 | 0.0744 | 0.131 | 0.0876
23 | TAAATCA | 0.0873 | 0.201 | -1.94 | -2.51 | 0.15 | -0.0295 | 0.109 | -0.0312 | 0.222 | -0.859
24 | AAACTGG | 0.0969 | 0.147 | 0.141 | 0.232 | 0.18 | -0.224 | 0.243 | 0.22 | 0.144 | 0.337
25 | CTCGTAT | 0.104 | 0.0924 | 0.203 | -0.512 | 0.159 | -0.257 | 0.0346 | 0.115 | 0.0877 | 0.21
26 | CTAAGCT | 0.1 | 0.116 | -2.37 | -2.85 | 0.0859 | -0.836 | 0.102 | -0.121 | 0.0508 | -0.156
27 | TGGAGAT | 0.0891 | 0.122 | 0.606 | 1.93 | 0.0579 | 2.06 | 0.237 | 0.0808 | 0.0201 | 0.11
28 | TTACACA | 0.0135 | 0.0272 | 0.0602 | -1.66 | -0.019 | -0.142 | -0.118 | -0.0797 | -0.142 | 0.00171
29 | CGGCGTT | 0.074 | -0.251 | -0.271 | -0.557 | -0.183 | -0.356 | -0.098 | -0.247 | -0.241 | -0.43
30 | CTGCGCA | -0.116 | -0.0673 | -0.591 | -0.524 | -0.0817 | -0.87 | -0.00169 | -0.162 | -0.122 | -0.136
